Data: publication PMC5339933 (Chinese Medical Journal, 2017)

Biological target: D31V mutant NLRP3 pyrin domain (amino acids 1-112) (human, UniProt Q96P20 1-112, D31V)
Assay: SPR

Sequence of UniProt Q96P20 (Q96P20 1-112 D31V): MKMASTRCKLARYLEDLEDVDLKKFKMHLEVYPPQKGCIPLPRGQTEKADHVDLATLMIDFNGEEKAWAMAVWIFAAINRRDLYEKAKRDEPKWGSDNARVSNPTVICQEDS

B1: human apoptosis-associated speck-like protein pyrin domain (ASC PYD, […]) (domain or fragment)
chain: not shown
B1: binds.
